Assay results published in PubChem BioAssay AID686979 (National Center for Advancing Translational Sciences (NCATS), 2013).
Hit rate of the full screen: of about 420,000 compounds, about 50,000 (12%) were called active. Inconclusive means that the source gave no clear call. Such entries were picked first, then a sample of the others. Calls come from the whole dose curve; as a rule, active = well fitted inhibition curve with a large enough effect; inconclusive = small, poorly fitted or top-dose-only effect; inactive = flat fitted curve, though single readings scatter. Potencies of inconclusive entries are left out as doubtful fits.

Test: qHTS for Inhibitors of human tyrosyl-DNA phosphodiesterase 1 (TDP1): qHTS in cells in presence of CPT; note: nearly all actives have a fitted effect of over 55% in size
Settings: chicken DT40 Tdp1-/-;hTDP1 cells + 20 nM CPT, ATP luminescence, 48 h; activity change, negative = growth inhibition: at 46.2 µM (top of the series) unless noted
Procedure, shortened: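 Cell growth measured by CellTiter-Glo luminescence after a minimum 48 h, 37 C compound exposure with 20 nM CPT in Tdp1-knockout DT40 cells stably expressing hTDP1, seeded 400/well; qHTS titration format.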
% is set by controls: 0 for no effect and ±100 for the full control effect; potency is the fitted concentration of half-maximal effect; tags give direction and shape of the fitted curve.

| Compound | Potency | activity change, negative = growth inhibition |
| --- | --- | --- |
| CCCCC1CCC(C(=O)N2CC(=O)Nc3ccc(F)cc3C2c2ccc(F)cc2)CC1 (centres undefined) | inconclusive [inhibitor, single point] | – |
| CCN1CCn2c3c(c4cc(C)ccc42)CCCC31 (centres undefined) | inconclusive [inhibitor, single point] | – |
| COc1ccc(C(=O)COC(=O)c2cc(=O)c3ccccc3o2)c(OC)c1 | – | inactive: -6.35% |
| O=C(OCC(=O)N1CCC(Cc2ccccc2)CC1)c1ccccc1O | inconclusive [inhibitor, single point] | – |
| CCOc1ccccc1C1C(C(N)=O)=C(C)Nc2nc(-c3cccc(C)c3)nn21 (centres undefined) | – | inactive: -6.74% |
| O=C(Nc1cc(Cl)ccc1F)C1=COCCO1 | – | inactive: -29% |
| CCOC(=O)CC1(CC)Oc2ccccc2N1S(=O)(=O)c1ccc(C)cc1 (centres undefined) | active: 23.1 µM | – |
| O=C1CCCc2c1cc(-c1ccccc1)n2-c1ccc(O)cc1 | inconclusive [inhibitor, single point] | – |
| Cc1nc2sc(C(=O)N(C)Cc3ccccc3)c(NC(=O)c3ccccc3)c2c(C)c1Cl | inconclusive [inhibitor, single point] | – |
| COc1ccc(N(C(C)C(=O)Nc2cccnc2)S(C)(=O)=O)cc1 (centres undefined) | – | inactive: 15.3% |
| COc1ccc(CNC(=O)C(c2ccc(C)o2)N(Cc2cccs2)C(=O)Cc2cccs2)cc1 (centres undefined) | active: 29.1 µM | – |
| COc1ccc(CCc2nnc(CCC(=O)NCc3cc(C(C)C)no3)o2)cc1 | – | inactive: 1.29% |
| O=c1cc(-c2ccccc2)c2ccccc2[nH]1 | inconclusive [inhibitor, single point] | – |
| CCOC(=O)c1c(NC(=O)COc2cccc(C(F)(F)F)c2)sc2c1CCC(C)C2 (centres undefined) | – | inactive: -15.1% |
| CCn1c2ccccc2c2nnc(N3CCN(c4ccc(F)cc4)CC3)nc21 | – | inactive: -9.06% |
| CCN(CC)c1nn2c(=O)c(C(=O)NCCc3ccc(C)cc3)cnc2s1 | inconclusive [inhibitor, single point] | – |
| CCN(CC)CCNC(CC(=O)Nc1ccc(Cl)cc1Cl)C(=O)O (centres undefined) | – | inactive: 25.8% |
| O=C(CCl)N(CCCNC(=O)C(F)(F)F)c1ccc([N+](=O)[O-])cc1 | active: 2.59 µM | – |
| Cn1c(=O)n(Cc2ccccc2Cl)c2ccccc21 | inconclusive [inhibitor, single point] | – |
| O=C(OCc1nc2ccsc2c(=O)[nH]1)c1ccc(Cl)s1 | inconclusive [inhibitor, single point] | – |
| CCCC(=O)Nc1ccc2c(c1)nc(CN1CCN(C(=O)OCC)CC1)n2C(C)C | active: 0.651 µM | – |
| COc1ccc(C(CNC(=O)c2ccc(C)c(S(=O)(=O)Nc3ccccc3OC)c2)N2CCCC2)cc1 (centres undefined) | inconclusive [inhibitor, single point] | – |
| COc1ccc(NC(=O)CSc2cn(CC(=O)N3CCCCC3)c3ccccc23)c(OC)c1 | inconclusive [inhibitor, single point] | – |
| COc1cccc(NC(=O)CN(C)C(=O)C(CCSC)NC(=O)c2ccco2)c1 (centres undefined) | – | inactive: -13.3% |
| Cc1ccc(S(=O)(=O)N(CC(=O)N/N=C/c2cccc3c2OCCO3)c2ccccc2F)cc1 | inconclusive [inhibitor, single point] | – |

| Compound | Potency | activity change, negative = growth inhibition |
| --- | --- | --- |
| Cc1ccc(C(=O)N/N=C/c2ccc([N+](=O)[O-])s2)cc1 | active: 8.2 µM | – |
| Cc1cc(C)nc(NS(=O)(=O)c2ccc(NC(=O)c3cccs3)cc2)n1 | – | inactive: -0.954% |
| COc1ccc(N(C(=O)c2ccco2)C(C(=O)NC2CCCC2)c2ccncc2)cc1 (centres undefined) | – | inactive: 4.09% |
| O=C(N[C@@H](Cc1ccc(O)cc1)C(=O)O)c1cccnc1 | – | inactive: 3.61% |
| CCOc1ccc(NC(=O)/C=C/c2ccccc2)c([N+](=O)[O-])c1 | inconclusive [inhibitor, partial curve] | – |
| CCOC(=O)[C@]12CCCC=C1N(Cc1ccccc1)C(=O)[C@H](CC(=O)N1CCN(C(=O)c3ccco3)CC1)C2 | inconclusive [inhibitor, single point] | – |
| COc1ccc2c(CN3CCCCCCC3)cc(=O)oc2c1 | inconclusive [inhibitor, single point] | – |
| CCOc1ccc(CNC(=O)c2ccc(Sc3ccc(Cl)cc3)c(NC(C)=O)c2)cc1 | active: 23.1 µM | – |
| COc1cc(/C=C(\C#N)c2ccccn2)ccc1OCc1ccccc1Cl | active: 14.6 µM | – |
| Cc1[nH]c2c(Br)cccc2c1[C@H]1[C@@H](CC#N)C1(C)C | active: 16.4 µM | – |
| CC(C)COC(=O)C1C2C=CC3(CN(C(C)c4ccc(Br)cc4)C(=O)C13)O2 (centres undefined) | – | inconclusive: -35% [inhibitor] |
| COc1ccc(NC(=O)C(NC(C)=O)C(=O)NCc2ccccc2Cl)cc1 (centres undefined) | inconclusive [inhibitor, single point] | – |
| CC(C)(C)OC(=O)Nc1ccc([C@@H](NC(=O)OC(C)(C)C)C(=O)OC(C)(C)C)cc1 | inconclusive [inhibitor, partial curve] | – |
| N#CC1=C(Nc2ccccc2Cl)SC(c2ccccc2O)NC1=O (centres undefined) | active: 20.6 µM | – |
| COc1ccc(C(=O)N[C@H](C(=O)OCn2nnc3ccccc3c2=O)C(C)C)cc1 | inconclusive [inhibitor, single point] | – |
| CCOc1ccc(NC(=O)CSc2oc(-c3ccco3)nc2S(=O)(=O)c2ccc(C)cc2)cc1 | inconclusive [inhibitor, partial curve] | – |
| COc1ccc(C(=O)/C=C/C(=O)N(Cc2ccc(F)cc2)C(C(=O)NC2CCCCC2)c2ccncc2)c(O)c1 (centres undefined) | inconclusive [inhibitor, single point] | – |
| CCCCN(CCCC)CCCNC(=O)C1CC(c2ccc(C(F)(F)F)cc2)=NO1 (centres undefined) | inconclusive [inhibitor, single point] | – |
| O=C(CCNS(=O)(=O)c1ccccc1F)N1CCN(Cc2ccccc2)CC1 | – | inactive: 1.47% |
| COc1ccccc1CN1CC(C(=O)NCCc2cn[nH]c2)CCC1=O (centres undefined) | – | inactive: 15.3% |
| Cc1ccc(N(CC(=O)NC(C)(C)C)C(=O)CNC(=O)c2cccs2)c(C)c1 | – | inactive: 16.6% |
| Cc1nnc(SCC(=O)NC(=O)NC(C)(C)C)s1 | – | inactive: 19.5% |
| O=[N+]([O-])c1ccccc1/C=N/N1CCN(c2ccc(Cl)cc2)CC1 | inconclusive [inhibitor, partial curve, poor fit] | – |
| CCCC(=O)Nc1nc2ccc(NC(=O)c3c(F)c(F)c(OC)c(F)c3F)cc2s1 | active: 0.92 µM | – |
| CCN(CC)CCCNC(=O)c1c(O)c2cc(F)cc3c2n(c1=O)C(C)CC3 (centres undefined) | inconclusive [inhibitor, single point] | – |

| Compound | Potency | activity change, negative = growth inhibition |
| --- | --- | --- |
| Cc1cc(N2CCN(c3ccc(F)cc3)CC2)nc2cc(O)ccc12 | active: 23.1 µM | – |
| COC(=O)c1cc(OC)c(OC)cc1NC(=S)N1CCCCC1 | – | inactive: -15.6% |
| Cc1nc(S(=O)(=O)N2CCN(c3ccc(Cl)cc3)CC2)cn1C | – | inactive: -22.9% |
| Cc1cc(Oc2cc(NN3CCCCC3)c([N+](=O)[O-])cc2[N+](=O)[O-])c(C(=O)c2ccccc2)cc1Cl | active: 20.6 µM | – |
| Cc1sc2ncnc(NCC(C)(C)N3CCOCC3)c2c1C | active: 2.06 µM | – |
| CCOC(=O)C1(C)/C(=N/Nc2ccccc2OC)C(=O)C(=O)N1c1ccccc1 (centres undefined) | active: 23.1 µM | – |
| CCCN1CCN(CCCNC(=O)c2cc3c(Cl)nc4ccccc4c3s2)CC1 | inconclusive [inhibitor, single point] | – |
| CCCOc1ccc(NC(=O)CC2C(=O)N(c3ccc(C)cc3)C(=O)N2C(C)C)cc1 (centres undefined) | inconclusive [inhibitor, single point] | – |
| CCCCn1c(SCc2cccc([N+](=O)[O-])c2)nc2ccsc2c1=O | inconclusive [inhibitor, single point] | – |
| S=c1nc[nH]c2n[nH]nc12 | inconclusive [inhibitor, single point] | – |
| O=C(O)CC(C(=O)Nc1ccc(F)cc1)C1CCCO1 (centres undefined) | – | inactive: -9.66% |
| CCCCN1CC(COCc2ccccc2)Oc2cccc(NCc3ccc(OC)cc3)c2S1(=O)=O (centres undefined) | inconclusive [inhibitor, single point] | – |
| CCOC(=O)c1c(C)[nH]c(C)c1C(=O)COC(=O)/C=C/c1cccc(C(F)(F)F)c1 | inconclusive [inhibitor, single point] | – |
| CCOc1ncccc1C(=O)OCc1ccc(C(=O)OC)cc1 | inconclusive [inhibitor, single point] | – |
| CC(C)Cn1c(SCC(=O)NC(=O)NC2CCCC2)nc2ccccc21 | active: 25.9 µM | – |
| Cc1ccc(C(NC(=O)C2CCCCC2)c2c(O)ccc3ccccc23)cc1 (centres undefined) | active: 16.4 µM | – |
| CCOC(=O)C1CCN(C(=O)c2ccccc2NC(=O)c2ccc(Cl)cc2)CC1 | inconclusive [inhibitor, single point] | – |
| CCOC(=O)c1c(C)[nH]c(C)c1C(=O)CSc1nc(N)cc(=O)[nH]1 | – | inactive: -2.46% |
| O=C(O)c1cc(NC(=O)c2ccc3c(c2)C(=O)N(Cc2ccccc2)C3=O)cc(C(=O)O)c1 | – | inactive: 12% |
| COC(=O)C1=CN(c2ccc(F)cc2)C(N)=C(C#N)C1c1cccc(F)c1 (centres undefined) | active: 7.31 µM | – |
| COc1ccccc1NC(=O)/C(=C/c1ccncc1)NC(=O)c1ccccc1 | – | inactive: -16% |
| CCN(Cc1nc(-c2cccc(C)c2)no1)S(=O)(=O)c1ccc(C)cc1 | inconclusive [inhibitor, single point] | – |
| Cc1nnc(NC(=O)CCn2c(=O)oc3ccc(Cl)cc32)s1 | inconclusive [inhibitor, single point] | – |
| COc1ccc(C(=O)Nc2ccc(-n3nncc3C(C)(C)C)cc2)cc1 | inconclusive [inhibitor, single point] | – |
